Test results as given in patent publication CN112442122A (SHANGHAI NOVAMAB BIOPHARMACEUTICALS CO LTD, dated 2021).

Tests used:
[1] = target: T1, 人PD-1 (on CHOZn/PD-1 stably transfected cells) (human, UniProt Q15116 25-288); assay: cell-based or functional assay
[2] = target: T1, 人PD-1 (on CHOZn/PD-1 stably transfected …); assay: flow cytometry; competition with hPD-L1-Biotin on CHOZn/PD-1 cells (method of Example 5)

T1 sequence (Q15116 25-288): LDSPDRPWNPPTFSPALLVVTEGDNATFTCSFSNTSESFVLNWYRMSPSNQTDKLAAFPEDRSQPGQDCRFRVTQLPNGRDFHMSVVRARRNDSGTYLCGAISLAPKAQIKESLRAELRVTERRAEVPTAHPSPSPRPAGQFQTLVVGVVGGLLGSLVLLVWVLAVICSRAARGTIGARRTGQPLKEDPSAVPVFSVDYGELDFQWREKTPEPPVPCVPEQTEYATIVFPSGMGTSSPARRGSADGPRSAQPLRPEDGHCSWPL

B1: 人源化PD-1纳米抗体(HuNb-Fc) (Fc fusion)
chain: EVQLQESGGGLVQPGGSLRLSCAASGYTYSSYYMGWFRQAPGKGLEGVAAIDRDGRTSYADSVKGRFTISRDNAKNTLYLQMNSLRAEDTAVYYCAAVLVLSGYYSDYGLVPPPFEYNYWGQGTLVTVSS[human IgG4 Fc with S228P (EU numbers) not listed]
notes: also called 二价抗体HuNb-Fc
For B1, the “Luciferase reporter assay EC50” value [1] was 0.699 µg/mL and the IC50 [2] was 1.03 µg/mL.
